Measured values published in the supplement of paper PMC9446081.
Screen size: about 39,000 compounds; about 220 (0.56%) showed activity. The list shows a part of the results.

Each compound was assayed on Escherichia coli K-12 BW25113 (assay: relative growth (OD600 normalised to plate interquartile mean) (fraction); higher = less growth inhibition, active = 0.2 or less). Conditions: 50 µM; LB; incubation time: overnight (16-24 h).
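Also: static incubation at 37 °C against the wild-type strain, values averaged over two biological replicates.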

Row | Compound | relative growth
1 | O=C(C[C@H]1CC[C@H]2[C@@H](COC[C@H](O)CN2Cc2ccccc2F)O1)N[C@H]1CCN(Cc2ccccc2)C1 | inactive: 1.01
2 | Cc1cc(NC2CCCCC2)ncn1 | inactive: 0.989
3 | Cc1noc(C)c1S(=O)(=O)N(C)C[C@@H]1Oc2ccc(NC(=O)Nc3ccc4c(c3)OCO4)cc2CC(=O)N([C@H](C)CO)C[C@@H]1C | inactive: 1
4 | O=C(CCCCCNC(=O)OCCCOc1ccc(C2=N[C@]3(Cc4ccccc4)C(=O)N(Cc4ccccc4)Cc4ccccc4[C@@H]3O2)cc1)NO | inactive: 1.03
5 | C[C@H]1CN([C@@H](C)CO)C(=O)Cc2cc(NC(=O)Nc3ccc4c(c3)OCO4)ccc2O[C@@H]1CN(C)C(=O)Nc1cccc2ccccc12 | inactive: 0.973
6 | C[C@@H]1CCCCO[C@@H](CN(C)Cc2ccc(C(=O)O)cc2)[C@@H](C)CN([C@@H](C)CO)C(=O)c2cc(NC(=O)CCC(F)(F)F)ccc2O1 | inactive: 0.972
7 | CCC[C@@H]1C[C@@H](C(=O)N[C@@H]([C@H]2O[C@H](SC)[C@H](OP(=O)(O)O)[C@@H](O)[C@H]2O)[C@H](C)Cl)N(C)C1 | inactive: 1.01
8 | C[C@@H]1CCCCO[C@@H](CN(C)C(=O)Nc2ccc(C(F)(F)F)cc2)[C@H](C)CN([C@H](C)CO)C(=O)c2cc(NS(=O)(=O)c3ccc(Cl)cc3)ccc2O1 | inactive: 1.01
9 | C[C@H]1CN([C@@H](C)CO)S(=O)(=O)c2ccc(C#Cc3cccc(F)c3)cc2O[C@H]1CN(C)CC1CC1 | inactive: 0.988
10 | COc1ccc(C#Cc2ccc3c(c2)O[C@H](CN(C)C(=O)c2ccccn2)[C@H](C)CN([C@H](C)CO)S3(=O)=O)cc1 | inactive: 1.01
11 | O=C(NCCO)c1ccc(C(=O)NCCO)cc1 | inactive: 0.984
12 | CO[C@@H]1CN(C)C(=O)c2ccc(NC(=O)C3CC3)cc2OC[C@@H](C)N(C(=O)CN2CCOCC2)C[C@H]1C | inactive: 1.04
13 | C[C@H](CO)N1C[C@H](C)[C@H](CN(C)C(=O)Nc2cccc3ccccc23)Oc2ccc(NC(=O)Cc3cn(C)c4ccccc34)cc2CC1=O | inactive: 1.04
14 | COc1ccc(NC(=O)Nc2ccc3c(c2)C(=O)N([C@H](C)CO)C[C@H](C)[C@H](CN(C)C(=O)Nc2cccc4ccccc24)OCCCC[C@@H](C)O3)cc1 | inactive: 1.02
15 | C[C@H]1CCCCO[C@H](CN(C)Cc2ccc(Cl)c(Cl)c2)[C@@H](C)CN([C@@H](C)CO)C(=O)c2cc(NS(=O)(=O)c3ccc(F)cc3)ccc2O1 | inactive: 0.959
16 | Cc1ccc(S(=O)(=O)N2C[C@@H](O)COC[C@@H]3O[C@H](CC(=O)NCCN4CCCCC4)CC[C@H]32)cc1 | inactive: 1
17 | Cc1ccc(S(=O)(=O)N(C)C[C@H]2OCCCC[C@H](C)Oc3ccc(NC(=O)Nc4ccc(F)cc4)cc3C(=O)N([C@H](C)CO)C[C@@H]2C)cc1 | inactive: 1.03
18 | C[C@H]1COc2c(C3(N)CC3)c(F)cc3c(=O)c(C(=O)O)cn1c23 | active: 0.0591
19 | Cc1noc(C)c1NC(=O)N(C)C[C@H]1Oc2ccc(NS(=O)(=O)c3c(C)noc3C)cc2CC(=O)N([C@@H](C)CO)C[C@@H]1C | inactive: 0.985
20 | Cc1noc(C)c1NC(=O)Nc1ccc2c(c1)C(=O)N([C@@H](C)CO)C[C@H](C)[C@@H](CN(C)S(=O)(=O)c1cccs1)OCCCC[C@@H](C)O2 | inactive: 1.02

Row | Compound | relative growth
21 | CCOC(=O)c1cc2c(c(-c3cccc(-c4cccc(F)c4)c3)n1)[C@H](CCO)N(S(=O)C(C)(C)C)C2 (stereo partly drawn) | inactive: 1.01
22 | CCCc1ccc2c(c1)CNCCC2 | inactive: 1
23 | CC12CCC(=O)C=C1CCC1C2C(=O)CC2(C)C1CCC2(O)C(=O)CO (stereo not drawn) | inactive: 1.03
24 | CCO[C@@H]1OC(C(=O)N2CCCCCCC2)=C[C@H](c2coc3ccccc3c2=O)[C@H]1CCCOC(=O)NCCCCCC(=O)NO | inactive: 1.01
25 | C[C@@H]1CN([C@@H](C)CO)C(=O)c2cccc(NC(=O)CCCCCC(=O)Nc3ccccc3N)c2O[C@H]1CN(C)Cc1ccc(C(F)(F)F)cc1 | inactive: 1.01
26 | COc1ccc(S(=O)(=O)Nc2ccc3c(c2)C(=O)N([C@@H](C)CO)C[C@@H](C)[C@@H](CN(C)S(=O)(=O)c2ccc(Cl)cc2)OCCCC[C@@H](C)O3)cc1 | inactive: 1.01
27 | CC(=O)N(C)C[C@@H]1Oc2cc(C#CCN(C)C)ccc2S(=O)(=O)N([C@@H](C)CO)C[C@@H]1C | inactive: 0.991
28 | CN(C)C(=O)C[C@H]1C=C[C@@H](NC(=O)C2CC2)[C@H](CO)O1 | inactive: 0.999
29 | CCS(=O)(=O)N1C[C@]2(CN(C2)C(=O)Nc2c(noc2C)C)c2c([nH]c3cc(ccc23)OC)[C@@H]1CO | inactive: 0.987
30 | CCNC(=O)C[C@H]1C=C[C@@H](NC(=O)C2CC2)[C@@H](CO)O1 | inactive: 1.01
31 | COCC#Cc1cnc2c(c1)C(=O)N([C@@H](C)CO)C[C@@H](C)[C@H](CN(C)C(=O)Nc1ccc(OC)cc1)O2 | inactive: 1
32 | C[C@@H]1CN([C@@H](C)CO)C(=O)c2cccc(NS(=O)(=O)c3ccccc3)c2O[C@@H]1CN(C)S(C)(=O)=O | inactive: 1.01
33 | Cc1ccc(S(=O)(=O)N(C)C[C@H]2Oc3ccc(NC(=O)Nc4ccc(C(F)(F)F)cc4)cc3CC(=O)N([C@@H](C)CO)C[C@@H]2C)cc1 | inactive: 0.984
34 | C[C@H]1CN([C@@H](C)CO)C(=O)c2cccc(NS(=O)(=O)c3cccs3)c2O[C@H]1CN(C)S(C)(=O)=O | inactive: 1.02
35 | Cc1ccc(S(=O)(=O)Nc2ccc3c(c2)C(=O)N([C@H](C)CO)C[C@@H](C)[C@@H](CN(C)C(=O)Cc2ccccc2)OCCCC[C@@H](C)O3)cc1 | inactive: 1.03
36 | COc1cc(N2CCO[C@]3(COCCN(S(C)(=O)=O)C3)C2)ncn1 | inactive: 0.997
37 | O=C1OCC=C[C@H]2O[C@@]34C=CCN(c5ccc(Cl)cc5)C(=O)[C@H]3N(CCCCCCO)C(=O)[C@@H]4[C@@H]12 | inactive: 0.983
38 | O=C(C[C@@H]1CC[C@H]2[C@@H](COC[C@H](O)CN2S(=O)(=O)c2ccccc2)O1)N[C@H]1CCN(Cc2ccccc2)C1 | inactive: 0.999
39 | O=C(C[C@@H]1CC[C@H]2[C@@H](COC[C@@H](O)CN2C(=O)c2ccc3c(c2)OCO3)O1)NC1Cc2ccccc2C1 | inactive: 1.01
40 | C[C@@H]1CN([C@H](C)CO)S(=O)(=O)c2ccc(C#C[C@@H](C)O)cc2O[C@@H]1CN(C)C(=O)C1CCCCC1 | inactive: 0.953

Row | Compound | relative growth
41 | O=C(O)c1oc2ccccc2c1CSc1ccc(Cl)cc1 | inactive: 0.972
42 | C[C@@H]1CN([C@@H](C)CO)S(=O)(=O)c2ccc(C3=CCCC3)cc2O[C@H]1CN(C)S(=O)(=O)c1ccc(F)cc1 | inactive: 1
43 | C[C@@H]1CN([C@@H](C)CO)C(=O)Cc2cc(NC(=O)Cc3cn(C)c4ccccc34)ccc2O[C@@H]1CN(C)C(=O)Nc1cccc2ccccc12 | inactive: 1
44 | Cc1ccccc1S(=O)(=O)N1C[C@H](O)COC[C@H]2O[C@H](CC(=O)NCCc3ccccc3)CC[C@@H]21 | inactive: 0.956
45 | C[C@H]1CN([C@@H](C)CO)C(=O)Cc2cc(NC(=O)Nc3ccc4c(c3)OCO4)ccc2O[C@H]1CN(C)Cc1ccc(-c2ccccc2)cc1 | inactive: 1.01
46 | O=C(C[C@@H]1CC[C@H]2[C@@H](COC[C@@H](O)CN2C(=O)Nc2cccc(F)c2)O1)NCc1ccccc1Cl | inactive: 1
47 | C[C@@H]1CCCCO[C@@H](CN(C)Cc2ccc(C(=O)O)cc2)[C@H](C)CN([C@@H](C)CO)C(=O)c2cc(NC(=O)Cc3ccccc3)ccc2O1 | inactive: 0.993
48 | CC(=O)O[C@H]1[C@H](O)[C@H](O)[C@H](O[C@@H]2[C@@H](Oc3cc(O)c4c(=O)cc(-c5ccc(O)c(O)c5)oc4c3)O[C@@H](C(=O)O)[C@H](O)[C@@H]2O)O[C@@H]1C | inactive: 0.986
49 | C[C@@H]1CCCCO[C@@H](CN(C)C(=O)Nc2ccccc2)[C@@H](C)CN([C@@H](C)CO)C(=O)c2cc(NC(=O)C3CCCCC3)ccc2O1 | inactive: 1
50 | C[C@H]1CN([C@@H](C)CO)C(=O)c2cc(NC(=O)Nc3ccc4c(c3)OCO4)ccc2O[C@@H]1CN(C)S(C)(=O)=O | inactive: 1
51 | C[C@@H]1CCCCO[C@H](CN(C)Cc2ccc(C(F)(F)F)cc2)[C@H](C)CN([C@@H](C)CO)C(=O)c2cc(NS(=O)(=O)c3cn(C)cn3)ccc2O1 | inactive: 0.989
52 | C[C@@H]1CN([C@H](C)CO)C(=O)c2cc(NC(=O)NC3CCCCC3)ccc2O[C@@H]1CN(C)Cc1ccc(C(=O)Nc2ccccc2N)cc1 | inactive: 0.975
53 | C[C@@H]1CN([C@H](C)CO)C(=O)c2cc(NS(=O)(=O)c3ccc(F)cc3)ccc2O[C@@H]1CN(C)Cc1ccncc1 | inactive: 0.995
54 | COc1ccc(S(=O)(=O)N(C)C[C@H]2OCCCC[C@H](C)Oc3ccc(NS(=O)(=O)c4cn(C)cn4)cc3C(=O)N([C@H](C)CO)C[C@@H]2C)cc1 | inactive: 0.998
55 | C[C@@H]1CN([C@@H](C)CO)C(=O)c2cc(/C=C/c3ccccc3)cnc2O[C@H]1CN(C)C(=O)Nc1ccc(C(F)(F)F)cc1 | inactive: 0.974
56 | CCOC(=O)C1CCN(c2cn[nH]c(=O)n2)CC1 | inactive: 0.972
57 | C[C@@H]1CN([C@@H](C)CO)S(=O)(=O)c2ccc(-c3ccc(C(=O)N(C)C)cc3)cc2O[C@H]1CN(C)C(=O)Cc1ccccn1 | inactive: 0.984
58 | C[C@@H]1CN([C@@H](C)CO)C(=O)c2cccc(NC(=O)CCCCCC(=O)Nc3ccccc3N)c2O[C@@H]1CN(C)Cc1ccccc1 | inactive: 0.99
